# Measured values as given in PubChem BioAssay AID1347055 (National Center for Advancing Translational Sciences (NCATS), 2019).
# Values joined by “and” are separate entries in the source; they are usually repeats but may differ in a detail not shown here. Identical values can stand only once. Out of some 54,000 compounds screened, about 120 (0.22%) were called active. This list was built around the results that the source calls inconclusive (neither active nor inactive); the mix of calls is not that of the screen. Calls come from the whole dose curve; as a rule, active = well fitted inhibition curve with a large enough effect; inconclusive = small, poorly fitted or top-dose-only effect, or effect the other way; inactive = flat fitted curve, though single readings scatter. Where the call is inconclusive, the potency comes from a doubtful curve fit.
# Biological target: Fumarate hydratase, mitochondrial (Homo sapiens) (UniProt P07954)
# Test: Identification of activators of human fumarate hydratase by quantitative high-throughput screening; note: the screen sought activators but most active calls are inhibition curves; nearly all actives have a fitted effect of over 45% in size
# Settings: FH coupled MDH/diaphorase resazurin fluorescence, 15 min; activity change, negative = inhibition: at 79.9 µM (top of the series)
# % is set by controls: 0 for no effect and ±100 for the full control effect; potency is the fitted concentration of half-maximal effect; tags give direction and shape of the fitted curve.
# UniProt P07954, sequence (P07954 whole entry, looked up): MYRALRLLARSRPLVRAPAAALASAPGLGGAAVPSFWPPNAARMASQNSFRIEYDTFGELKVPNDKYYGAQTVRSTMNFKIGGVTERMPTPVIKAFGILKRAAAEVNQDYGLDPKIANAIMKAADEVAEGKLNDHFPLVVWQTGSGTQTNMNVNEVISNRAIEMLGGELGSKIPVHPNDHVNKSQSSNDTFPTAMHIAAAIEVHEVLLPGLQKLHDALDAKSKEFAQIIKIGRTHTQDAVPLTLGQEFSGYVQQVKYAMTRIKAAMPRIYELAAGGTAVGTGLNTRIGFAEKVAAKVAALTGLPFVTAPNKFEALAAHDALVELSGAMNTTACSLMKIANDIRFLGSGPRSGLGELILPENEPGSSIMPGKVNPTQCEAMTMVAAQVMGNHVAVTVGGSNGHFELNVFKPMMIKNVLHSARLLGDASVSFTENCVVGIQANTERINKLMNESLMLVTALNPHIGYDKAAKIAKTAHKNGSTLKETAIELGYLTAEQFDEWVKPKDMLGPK
SMILES,"activity change, negative = inhibition",Potency
CS(=O)(=O)NCC1CCC(Nc2nc3c(s2)CCSc2ccccc2-3)CC1 (configuration not stated),inactive: -8.09%,–
COc1cccc(C(=O)Nc2ccccc2C(=O)OCc2cc(=O)n3nc(C)sc3n2)c1,–,"inconclusive: 11.2 µM [inhibitor, single point]"
CCc1ccc(NS(=O)(=O)c2ccc3[nH]cc(C(=O)NC4CCCC4)c(=O)c3c2)cc1,–,"inconclusive: 50.1 µM [inhibitor, single point]"
Cc1ccc(C)c(N2CCN(c3ncnc4onc(C)c34)CC2)c1,inactive: -10.1%,–
O=C(CSc1nc2cc3ccccc3cc2[nH]1)Nc1cccc(C(F)(F)F)c1,inactive: -12.4%,–
Cc1cc(N2CCCCC2)nc2ccc(NC(=O)c3ccc(F)cc3)cc12,–,"inconclusive: 31.6 µM [inhibitor, single point]"
O=c1ccn(C2OC(CO)C(O)C2O)c(=O)[nH]1 (configuration not stated),inactive: 2.04%,–
Cc1ccc(N2CCN(S(=O)(=O)N3CCCCC3)CC2)c(C)c1,–,"inconclusive: 50.1 µM [inhibitor, single point]"
COc1ccc(Cl)cc1NC(=O)CCn1c(=O)c2cccn2c2ccccc21,–,"inconclusive: 35.5 µM [inhibitor, single point]"
Cn1c(NC[C@@H](N)Cc2ccccc2)nc(-c2ccncc2)c(-c2ccc3ccccc3c2)c1=O,inactive: -6.38%,–
CCC(C)Sc1oc(-c2ccco2)nc1S(=O)(=O)c1ccc(Cl)cc1 (configuration not stated),inactive: -16.4%,–
O=C(NCc1ccc(F)cc1)c1cc2cccc3c2n1CCS3,–,"inconclusive: 35.5 µM [inhibitor, single point]"
COc1ccc(S(=O)(=O)NCCc2sc3nc(-c4ccc(C)cc4)nn3c2C)cc1C,–,"inconclusive: 15.8 µM [inhibitor, partial curve, poor fit]"
CC(=O)[C@]1(O)Cc2c(O)c3c(c(O)c2[C@@H](O[C@H]2C[C@H](N)[C@H](O)[C@H](C)O2)C1)C(=O)c1ccccc1C3=O,–,"inconclusive: 28.2 µM [inhibitor, partial curve, poor fit]"
COc1ccc(-n2cc(-c3ccccc3)nc2SCC(=O)Nc2ccccc2C)cc1,–,"inconclusive: 15.8 µM [inhibitor, partial curve, poor fit]"
Cc1ccc(Nc2c3c(nc4nc(-c5cccs5)nn24)CCCC3)cc1F,–,"inconclusive: 35.5 µM [inhibitor, single point]"
CCS(=O)(=O)N1CC(=O)N(c2ccc(C)c(C)c2)C(C)(C(=O)NC2CCCCC2)C1 (configuration not stated),inactive: -0.0202%,–
CC(C)=CCC[C@](C)(O)[C@H]1CC[C@]2(C)[C@@H]1[C@H](O)CC1[C@@]3(C)CC[C@H](O)C(C)(C)C3[C@@H](O[C@@H]3O[C@H](CO)[C@@H](O)[C@H](O)[C@H]3O[C@@H]3OC[C@@H](O)[C@H](O)[C@H]3O)C[C@]12C (some centres not stated),inactive: 8.36% [at 20.6 µM],–
CCc1ccc(-c2nc3c(c(SCc4ccc(F)cc4)n2)Cc2c(CO)cnc(C)c2O3)cc1,–,"inconclusive: 31.6 µM [inhibitor, single point]"
CCN1C(=O)c2ccccc2Sc2ccc(NC(=O)c3ccc(C)c(F)c3)cc21,–,"inconclusive: 50.1 µM [inhibitor, single point]"
COc1cccc(NC(CNS(=O)(=O)c2ccc(C)cc2)c2ccccc2)c1 (configuration not stated),–,"inconclusive: 20 µM [inhibitor, partial curve, poor fit]"

SMILES,"activity change, negative = inhibition",Potency
CC(C)S(=O)(=O)Nc1ccc(F)c(C(=O)c2c[nH]c3ncc(-c4cccnc4)cc23)c1F,inactive: -5.84%,–
O=C(Nc1noc2ccccc12)c1cccc(F)c1,inactive: -21.6%,–
CSc1ccc(CCNC(=O)c2cc3n(n2)CCCN(Cc2ccc(C)cc2)C3=O)cc1,inactive: 1.94%,–
CCOc1ccc(CCNS(=O)(=O)c2c(C)nc3sc(C)cn3c2=O)cc1OCC,–,"inconclusive: 3.16 µM [inhibitor, partial curve]"
O=C(Nc1nc2nc(-c3ccccc3)cc(=O)n2[nH]1)c1ccc(F)cc1,inactive: -6.34%,–
CCOc1ccccc1N1CC(c2nc3ccccc3n2CCCOc2ccccc2OC)CC1=O (configuration not stated),–,"inconclusive: 31.6 µM [inhibitor, partial curve, poor fit]"
CCOc1ccc(S(=O)(=O)NCCc2sc(-c3ccc(C)cc3)nc2C)cc1,–,"inconclusive: 15.8 µM [inhibitor, partial curve]"
Cc1ccc(CNC(=O)c2cn(C)c3ccc(S(=O)(=O)N(C)C4CCCCC4)cc3c2=O)cc1,–,"inconclusive: 35.5 µM [inhibitor, single point]"
CCOc1c2c(c(OCC)c3ccccc13)C(=O)N(c1ccc(CC(=O)NS(=O)(=O)c3ccccc3)cc1)C2,inactive: -11.6%,–
CCOc1ccc(CC(=O)NCCc2csc3nc(-c4ccccc4F)nn23)cc1,inactive: -12.1%,–
COc1ccc(CNC(=O)C(=O)NCC(c2ccc3c(c2)OCO3)N2CCOCC2)cc1 (configuration not stated),inactive: 22.6%,–
COc1ccc(-c2cc(C(=O)N3CCN(c4ccccc4OC)CC3)c3cc(C(C)C)ccc3n2)cc1,inactive: -25.6%,–
CC(C)(O)C1CC=C(C(=O)OC[C@H]2O[C@@H](Oc3cc(C(=O)O)cc(O)c3O)[C@H](O)[C@@H](O)[C@@H]2O)CC1 (some centres not stated),inactive: 1.56% [at 53.3 µM],–
Cc1nc2cc(-c3cccc(F)c3)nn2c(C)c1CCC(=O)N1CCN(c2ccc(F)cc2)CC1,–,"inconclusive: 31.6 µM [inhibitor, single point]"
CC1CCN(C(c2ccc(F)cc2)c2ccc(C(C)C(=O)O)cc2-c2ccc(C(F)(F)F)cc2)CC1 (configuration not stated),inactive: -24.4%,–
Nc1ncnc2c1c(-c1ccc(Oc3ccccc3)cc1)cn2C1CCCC1,–,"inconclusive: 39.8 µM [inhibitor, single point] and inconclusive: 35.5 µM [inhibitor, single point]"
CC(C)(C)C1CCc2c(sc(NC(=O)c3ccccc3F)c2C(=O)N2CCCCC2)C1 (configuration not stated),–,"inconclusive: 11.2 µM [inhibitor, full curve, poor fit]"
CS(=O)(=O)c1ncc(N(Cc2ccccc2)Cc2ccco2)c(C(=O)Nc2cccc(C(F)(F)F)c2)n1,–,"inconclusive: 35.5 µM [inhibitor, partial curve, poor fit]"
O=C(NCCO)c1cccc(-c2cc(Nc3ccc(OC(F)(F)F)cc3)ncn2)c1,–,"inconclusive: 6.31 µM [activator, single point]"
CCOc1ccc(CN(CCc2ccc3c(c2)OCO3)Cc2cc(OC)cc(OC)c2)cc1,–,"inconclusive: 31.6 µM [inhibitor, partial curve, poor fit]"
CCCCCC1CC1CC1CC1CCCCCCCC(=O)O (configuration not stated),–,"inconclusive: 16.5 µM [inhibitor, single point]"

SMILES,"activity change, negative = inhibition",Potency
CC(C)Oc1ccc(C(=O)N2CCC(c3nc4ccccc4s3)CC2)cc1,inactive: -9.96%,–
COc1ccc(NC(=O)CSc2nncn3c2cc2occc23)c(OC)c1,–,"inconclusive: 44.7 µM [inhibitor, single point]"
Cc1ccc(N2CCN(C(=O)c3cn(C)c4ccc(S(=O)(=O)N5CCC(C)CC5)cc4c3=O)CC2C)cc1 (configuration not stated),–,"inconclusive: 25.1 µM [inhibitor, partial curve, poor fit]"
Cc1ccccc1-n1c(SCC(=O)c2ccccc2)nnc1-c1ccc(F)cc1,–,"inconclusive: 31.6 µM [inhibitor, partial curve, poor fit]"
COc1ccc(C(=O)N(Cc2ccco2)Cc2ccccc2F)cc1Cl,–,"inconclusive: 39.8 µM [inhibitor, partial curve, poor fit]"
O=S(=O)(NCCc1nnc2ccc(SCc3cccc(Cl)c3)nn12)c1ccccc1,–,"inconclusive: 17.8 µM [inhibitor, partial curve]"
C[C@@H]1COCCN1c1cc(C2(S(C)(=O)=O)CC2)nc(-c2cccc3[nH]ccc23)n1,inactive: -3.26%,–
COc1cccc(CNCCSc2nnnn2C)c1OCc1ccc(F)cc1,inactive: 3.32%,–
CSc1cccc(NC(=O)CN2C(=O)COc3ccc(S(=O)(=O)N4CCC(C)CC4)cc32)c1,–,"inconclusive: 35.5 µM [inhibitor, single point]"
COc1ccc(-n2nc(C(=O)Nc3cccc(C)n3)c3c4ccccc4n(C)c3c2=O)cc1,–,"inconclusive: 50.1 µM [activator, single point]"
CCCc1cc(=O)[nH]c(SCc2nc(-c3ccccc3F)no2)n1,–,"inconclusive: 28.2 µM [inhibitor, single point]"
Cn1nc(-c2ccc(N3CCCCC3)c(NC(=O)c3ccc(Cl)cc3)c2)c2ccccc2c1=O,inactive: -4.14%,–
Cc1c(Cl)cccc1-c1ccc(/C=C(\C#N)c2nc3ccccc3[nH]2)o1,inactive: -5.78%,–
CCN(CC)c1ccc(NS(=O)(=O)c2cc(-c3cc(C)no3)ccc2C)c(C)c1,–,"inconclusive: 31.6 µM [inhibitor, single point]"
COc1cc(C(=O)N2CCN(C(=O)COc3cccc(C)c3)CC2)cc(OC)c1OC,–,"inconclusive: 2 µM [inhibitor, partial curve, poor fit]"
CCOc1ccc(NC(=O)CN2CCN(CC(=O)Nc3ccc(F)cc3F)CC2)cc1,–,"inconclusive: 10 µM [inhibitor, partial curve, poor fit]"
Cc1ccc(-n2ncc(C(=O)NC3CCN(Cc4ccccc4)CC3)c2C2CCN(C(=O)OC(C)(C)C)CC2)cc1C,–,"inconclusive: 35.5 µM [inhibitor, single point]"
Cc1ccc(CSC2=Nc3ccccc3C3=NC(CC(=O)NCc4ccc5c(c4)OCO5)C(=O)N23)cc1 (configuration not stated),–,"inconclusive: 11.2 µM [inhibitor, partial curve, poor fit]"
CCn1c(=O)n(CC)c2cc(N3CCCC3)c(NC(=O)Nc3cc(C)cc(C)c3)cc21,–,"inconclusive: 0.794 µM [inhibitor, partial curve]"
COc1ccc(NS(=O)(=O)c2ccc(-n3cccn3)cc2)cc1OC,inactive: -1.47%,–
